Results as given in the supplement of paper PMC4894684.
Where a name gives a salt, the structure may show the parent alone. ± gives the standard deviation of the averaged measurements. Among all 1,000 compounds or so, about 15 (2%) showed an effect of 50% or more. The list shows a part of the results.
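Further: confluent HFF monolayers, run in parallel with the Toxoplasma growth screen as a host toxicity counterscreen.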

The compounds below were run on HFF (assay: uninfected host cell viability relative to vehicle control; higher = less host cell toxicity). Settings: 5 µM; 72 h; oxygen 21 %.
In the case of `COc1ccc([C@H]2CNC(=O)C2)cc1OC1CCCC1` [(S)-(+)-Rolipram], the “uninfected host cell viability” value is reported as 85.5 ± 1.8%. `COc1ccccc1C1(O)CCN(CCCn2c3ccccc3c3ccccc32)CC1` [NNC 05-2090 hydrochloride] was tested, and the “uninfected host cell viability” value was 81.9 ± 1.6%. `FC(F)(F)c1cc(COC2CCCNC2c2ccccc2)cc(C(F)(F)F)c1` [L-733,060 hydrochloride] was tested, and the “uninfected host cell viability” value was 78.8 ± 2.5%. With `COC(=O)c1sccc1S(=O)(=O)Nc1ccc(Nc2ccccc2)cc1OC` the “uninfected host cell viability” value was 77.8 ± 0.79%. For `CC1Nc2ccc(Cl)cc2S(=O)(=O)N1` (stereo not given), the “uninfected host cell viability” value was 95.27 ± 0.86%. With `Nc1c(Br)cc(Br)cc1CN[C@H]1CC[C@H](O)CC1` [Ambroxol hydrochloride] the “uninfected host cell viability” value was 83.8 ± 1.4%. For `Nc1ccc(-c2nc3ccc(-c4nc5ccc(N)cc5[nH]4)cc3[nH]2)cc1`, the “uninfected host cell viability” value was 89.4 ± 0.87%. With `Cc1ccc(NC(=O)C(C)C)cc1C1CCN(Cc2ccc(Oc3ccc(F)c(F)c3)cc2)CC1` the “uninfected host cell viability” value was 80.8 ± 2%. In the case of `Cc1nnc(-c2ccc3occ(-c4ccc([S+](C)[O-])cc4)c3c2)o1` (stereo not given), the “uninfected host cell viability” value is reported as 85.3 ± 3.4%. With `COc1ccccc1N1CCN(CC(O)COc2cccc3ccccc23)CC1` (stereo not given) [Naftopidil hydrochloride] the “uninfected host cell viability” value was 86.6 ± 1.6%. In the case of `CN1CCC(=C2c3ccccc3CC(=O)c3sccc32)CC1` [Ketotifen fumarate], the “uninfected host cell viability” value is reported as 86.9 ± 1.8%. For `CCCCCCCCCCC[C@@H](C[C@@H]1OC(=O)[C@H]1CCCCCC)OC(=O)[C@H](CC(C)C)NC=O` [Orlistat], the “uninfected host cell viability” value was 105 ± 3.2%. With `COc1ccc(-c2ccc(=N)n(CCCC(=O)O)n2)cc1` the “uninfected host cell viability” value was 87.1 ± 1%. In the case of `CC(C)(Oc1ccc(Cl)cc1)C(=O)O` [Clofibric acid], the “uninfected host cell viability” value is reported as 87.9 ± 1.5%. With `COc1ccc(C(=O)Nc2sc3c(c2C(N)=O)CCCC3)cc1OC` the “uninfected host cell viability” value was 80.1 ± 2.9%. `O=c1cc(N2CCNCC2)oc2c(-c3ccccc3)cccc12` was tested, and the “uninfected host cell viability” value was 87.4 ± 1.8%. With `CC1(C)C(=O)NC2=C1C(=O)C(=O)c1ccccc12` the “uninfected host cell viability” value was 65.5 ± 2%. With `CN1CCN(C2=Nc3cc(Cl)ccc3Nc3ccccc32)CC1` [Clozapine] the “uninfected host cell viability” value was 81.5 ± 2%. In the case of `CCCCCCCCCCCCCCCC(=O)NCCO` [Palmitoylethanolamide], the “uninfected host cell viability” value is reported as 103 ± 4.7%. In the case of `CC(C)NC[C@H](O)COc1ccc(CC(N)=O)cc1` [S-(-)-Atenolol], the “uninfected host cell viability” value is reported as 82.5 ± 2.5%. For `O=c1cc(N2CCOCC2)oc2c1ccc1ccccc12`, the “uninfected host cell viability” value was 82.9 ± 0.9%. For `COc1ccc2[nH]c(I)c(CCNC(C)=O)c2c1` [2-Iodomelatonin], the “uninfected host cell viability” value was 84.3 ± 3.2%. `CN1CCN(C2=Cc3ccccc3Oc3ccc(Cl)cc32)CC1` was tested, and the “uninfected host cell viability” value was 82.9 ± 3.7%. In the case of `CN1CCc2cccc3c2[C@H]1Cc1ccc(O)c(O)c1-3` [(R)-(-)-Apomorphine hydrochloride], the “uninfected host cell viability” value is reported as 74.5 ± 3.3%. In the case of `CC(=O)OCCNC(=O)c1cccnc1` [N-[2-(Acetoxy)ethyl]-3-pyridinecarboxamide], the “uninfected host cell viability” value is reported as 82.8 ± 3.4%. `NCCCCNCCCN` [Spermidine trihydrochloride] was tested, and the “uninfected host cell viability” value was 95.8 ± 6.5%. With `Nc1ncn([C@H]2C[C@H](O)[C@@H](CO)O2)c(=O)n1` [Decitabine] the “uninfected host cell viability” value was 88.1 ± 2.9%. In the case of `CCOC(=O)[C@]12CC1/C(=N\O)c1ccccc1O2` (stereo not given in full), the “uninfected host cell viability” value is reported as 94.3 ± 2.9%. In the case of `C[N+](C)(C)CCCCCNCC12CC3CC(CC(C3)C1)C2`, the “uninfected host cell viability” value is reported as 83.7 ± 2.8%. `COCCOC(=O)C1=C(C)NC(C)=C(C(=O)OC(C)C)C1c1cccc([N+](=O)[O-])c1` (stereo not given) [Nimodipine] was tested, and the “uninfected host cell viability” value was 89 ± 2.9%. For `CN1C(C(=O)Nc2ccccn2)=C(O)c2ccccc2S1(=O)=O` [Piroxicam], the “uninfected host cell viability” value was 82.4 ± 5.3%. With `O=C(CCCN1CCC(O)(c2ccc(Cl)cc2)CC1)c1ccc(F)cc1` [Haloperidol hydrochloride] the “uninfected host cell viability” value was 87.4 ± 3%. For `O=c1[nH]c2cc(Cl)ccc2c(O)c1-c1cccc(Oc2ccccc2)c1`, the “uninfected host cell viability” value was 86.7 ± 9.3%. For `O=C(Nc1ccccc1)N[C@@H]1C[C@@H](C(=O)O)Nc2cc(Cl)cc(Cl)c21`, the “uninfected host cell viability” value was 87.6 ± 1.1%. For `CC(C)[C@H](NS(=O)(=O)c1ccc(-c2ccc(Br)cc2)cc1)C(=O)O`, the “uninfected host cell viability” value was 87.2 ± 2.2%. For `O=C1NC(=O)c2cc(Nc3ccc(F)cc3)c(Nc3ccc(F)cc3)cc21`, the “uninfected host cell viability” value was 86.353 ± 0.013%. With `COc1ccc([C@@H]2Sc3ccccc3N(CCN(C)C)C(=O)[C@@H]2OC(C)=O)cc1` [Diltiazem hydrochloride] the “uninfected host cell viability” value was 99.4 ± 2.1%. With `C[C@H](NC[C@H](O)CP(=O)(O)Cc1ccccc1)c1ccc(Cl)c(Cl)c1` the “uninfected host cell viability” value was 87.23 ± 0.39%. For `CC(=N)NCc1cccc(CN)c1` [1400W dihydrochloride], the “uninfected host cell viability” value was 93.2 ± 1.7%. With `NS(=O)(=O)Cc1noc2ccccc12` [Zonisamide] the “uninfected host cell viability” value was 88.15 ± 0.77%. `COc1cc(N)c(Cl)cc1C(=O)CCC1CCN(CCNS(C)(=O)=O)CC1` was tested, and the “uninfected host cell viability” value was 80.8 ± 1.4%. `Clc1ccc(CCCOCCCN2CCCCC2)cc1` was tested, and the “uninfected host cell viability” value was 101 ± 4.2%. With `Oc1nc(-c2ccc(C(F)(F)F)cc2)nc2c1CSCC2` the “uninfected host cell viability” value was 83.2 ± 2.4%. With `Cc1nc2ccc(NC(=O)Nc3ccnc4cccnc34)cc2o1` the “uninfected host cell viability” value was 78.41 ± 0.58%. `Clc1cccc(Nc2nnc(-c3ccccc3)c3ccccc23)c1` was tested, and the “uninfected host cell viability” value was 85.8 ± 0.91%.
